These results are taken from publication PMC8144621, “A two-hybrid system reveals previously uncharacterized protein–protein interactions within the Helicobacter pylori NIF iron–sulfur maturation system” (Scientific Reports, 2021).

First the molecules themselves.
B1: ApbC (HP0207), BACTH fusion (protein, UniProt O24999 1-368)
chain: MLTQEDVLNALKTIIYPNFEKDIVSFGFVKNITLHDDQLGLLIEIPSSSEETSAILRENISKAMQEKGVKALNLDIKTPPKPQAPKPTTKNLAKNIKHVVMISSGKGGVGKSTTSVNLSIALANLNQKVGLLDADVYGPNIPRMMGLQSADVIMDPSGKKLIPLKAFGVSVMSMGLLYDEGQSLIWRGPMLMRAIEQMLSDIIWGDLDVLVVDMPPGTGDAQLTLAQAVPLSAGITVTTPQIVSLDDAKRSLDMFKKLHIPIAGIVENMGSFVCEHCKKESEIFGSNSMSELLEAYHTQILAKLPLEPKVRLGGDRGEPIVISHPNSVSAKIFEKMAQDLSAFLERVKKEKLADNKDIQPTQTHACSH
B2: Nfu (HP1492), T18 fusion (protein, UniProt O26025 1-89)
chain: MIEFSDEDLQKPVRIVIEKIRPYLLKDGGNIEVLGVKSMKIYVALEGACKTCSSSKITLKNVIERQLKMDIHPNLEVVCLENAKEFDKL
B3: FdxA (HP0277), BACTH fusion (protein, UniProt O25054 1-84)
chain: MSLLVNDECIACDACREECPSEAIEEGDPIYNIDPDRCTECYGYDDDEPRCVSVCPVDAILPDPNNAESKEELKYKYESLKEQD
B4: NifU (HP0221), T18 fusion (protein, UniProt O25009 1-326)
chain: MAKHDLVGSVLWDAYSKEVQRRMDNPTHLGVITEEQAKAKNAKLIVADYGAEACGDAVRLYWLVDESTDRIVDAKFKSFGCGTAIASSDMMVELCLNKRVQDAVKITNLDVERGLRDDPDTPAVPGQKMHCSVMAYDVIKKAAGMYLGKNAEDFEEEIIVCECARVSLGTIKEVIKLNDLKSVEEITNYTKAGAFCKSCVRPGGHEKRDYYLVDILKEVREEMEAEKLKATANKSQSGELAFREMTMVQKIKAVDKVIDENIRPMLMMDGGDLEILDIKESDDYIDVYIRYMGACDGCMSATTGTLFAIENALQELLDRSIRVLPI
B5: aconitase (HP0779), T18 fusion (enzyme, UniProt P56418 1-852)
chain: MKDFLEDYKKSVSERGSEGIPPLPLNAKQVQAVVEILTKDPTNAAFAKELLIHRVSPGVDEGAKVKAEFLAKLSQKKLECVHISALEATTLLGTMLGGYNVEPLIMGLESQDKNIAKESAKALKTTLLVYGSFDKIAAMSKTNALAKEVLESWANAEWFLNKEPLNECIEACVFKIDGETNTDDLSPASDAFTRSDIPLHAKAMLKNRIENYEQRIKAIKTKGVPVAYVGDVVGTGSSRKSATNSIMWHFGKDIPFVPNKRSGGIVIGGVIAPIFFATCEDSGALPIVADVKDLKEGDLIKIYPYKGEITLNDKVVSTFKLEPETLLDEVRASGRIPLIIGRGLTNKARKFLGLGESEAFKKPSAPKSDAKGYTLAQKIVGHACGVKGILPGTYCEPKVTTVGSQDTTGAMTRDEVKELASLKFDAPFVLQSFCHTAAYPKPSDVSLHATLPGFITQRGGVALHPGDGVIHTWLNRMGLPDTLGTGGDSHTRFPLGISFPAGSGLVAFAAVTGTMPLNMPESVLVRFKGEMNPGITLRDLVNAIPYYAIKKGLLTVEKKGKINVFNGRILEIEGLPDIKMEQAFELSDASAERSAAACVVRLNKEPMIEYLKSNIKLIDEMIASGYEDKETLKKRRDAMQAWVDNPVLLEPDSNAQYAAVIEIDVAEITEPILACPNDPDDVATLSEVLADTTGKRPHAIDEVFIGSCMTNIGHFRAFGEIVKNAPPSQARLWVVPPSKMDEQELINEGYYAIFGAAGARTEVPGCSLCMGNQARVRDNAVVFSTSTRNFDNRMGRGAKVYLGSAELGAACALLGRIPTKEEYMNLVSEKLESQKDKIYRYMNFNLMENFRL
B6: Nqo9 (HP1268), T18 fusion (protein, UniProt O25858 1-220)
chain: MAKQEYKQLPKRAEVHSATEQFKDTVKTSLGLDLFKGLGLTIKEFFSPSVTIHYPMEQLPLSPRYRAVHNLQRLLDSGSERCIGCGLCEKICTSNCIRIITHKGEDNRKKIDSYTINLGRCIYCGLCAEVCPELAIVMGNRFENASTQRSQYGSKSEFLTSEQDAKNCSHAEFLGFGAVSPNYNERMQATPLDYVQEPSKEESQEETPTNPESNKGDENV
B7: fumarate reductase subunit FrdB (HP0191), T18 fusion (protein, UniProt O06914 1-245)
chain: MSDNERTIVVRVLKFDPQSAVSKPHFKEYQLKETPSMTLFIALNLIREHQDPDLSFDFVCRAGICGSCAMMVNGRPRLACKTLTSSFESGVITLMPMPSFTLIKDLSVNTGDWFLDMTKRVESWAHSKEEVDITRPEKRVEPDEAQEVFELDRCIECGCCIASCGTKLMRPNFIGAAGMNRAMRFMIDSHDERNDDDFYELVGDDDGVFGCMSLIACHDTCPKELPLQSSIATLRNRMLKVGKSR

These are yes or no findings as the source states them, for the method shown. Some results given as binding are weak or reduced against the parent protein; the word gives no strength. Sequences can lack the tags named with a protein.

One assay has as its target T1, ApbC (HP0207), BACTH fusion (Helicobacter pylori strain 26695) (UniProt O24999).
T1 sequence: B1 chain
As to the kind of experiment: two-hybrid; BACTH in E. coli BTH101 (cya); T25 fusion with T18 fusion; selection by growth in Fe-enriched M63-maltose liquid minimal medium, 30 °C, 72 h, aerobic; OD595 ≤ 0.05 no detectable interaction, 0.05-0.1 weak, 0.1-0.2 intermediate, ≥ 0.2 strong.
As for B1, the binding result was “binds”.
For B2, the binding result is listed as “binds”.
For the molecule B3, the binding result is given as “binds”.

The target of the next assay is T2, FdxA (HP0277), BACTH fusion (Helicobacter pylori strain 26695) (UniProt O25054).
T2 sequence: B3 chain
Described as above.
With B4, the binding entry was “no binding”.
B1: the binding result is given as “binds”.
Same read-out and setting: the entry for B3 is “binds”.

A further assay addresses T1, ApbC (HP0207), BACTH fusion (Helicobacter pylori strain 26695). As to the kind of experiment: two-hybrid; BACTH (bacterial adenylate cyclase two-hybrid) in E. coli BTH101 (cya); T25 fusion (pKT25 or pKNT25) with T18 fusion (pUT18C); screening on MacConkey-maltose (MC-Mal) plates with 0.5 mM IPTG, 0.1 mM FeCl3, 0.5 mM L-cysteine; 30 °C, 36-48 h, aerobic; positive clones turn red.
Consider B5, for which the binding entry is recorded as “binds”.
As to B6, the binding entry is recorded as “binds”.
On to B1, for which the binding result is recorded as “binds”.
As for B2, the binding entry is recorded as “binds”.
On the same count and under the same terms, the entry for B7 is “binds”; for B3 it is “binds”.

In the next assay the target is T2, FdxA (HP0277), BACTH fusion (Helicobacter pylori strain 26695). Described as above.
B4: the binding entry is listed as “no binding”.
Take B1: the binding entry is recorded as “binds”.
In the case of B3, the binding entry is on record as “binds”.

For a further assay, the target named is T1, ApbC (HP0207), BACTH fusion (Helicobacter pylori strain 26695). As to the kind of experiment: two-hybrid; BACTH in E. coli BTH101 (cya); T25 fusion (pKT25 or pKNT25) with T18 fusion (pUT18C); screening on LB-X-Gal plates with 0.5 mM IPTG, 0.1 mM FeCl3, 0.5 mM L-cysteine; 30 °C, 36-48 h, aerobic; positive clones turn blue.
Regarding B5, the binding entry is “binds”.
On the same count and under the same terms, the entry for B6 is “binds”.
Same read-out and setting: the entry for B1 is “binds”.
Take B2: the binding result is reported as “binds”.
On to B7, for which the binding entry is “binds”.
B3: the binding result is on record as “binds”.

A further assay has as its target T2, FdxA (HP0277), BACTH fusion (Helicobacter pylori strain 26695). Described as above.
Regarding B4, the binding result is reported as “no binding”.
On to B1, for which the binding entry is “binds”.
Still for that read-out and setting: the entry for B3 is “binds”.
